Assay results from PubChem BioAssay AID1460 (National Center for Advancing Translational Sciences (NCATS), 2008).
Among all 270,000 compounds or so, about 5,800 (2.1%) were called active. The inconclusive results got no clear call from the source; some entries with a clear call stand among them for comparison. Calls come from the whole dose curve; as a rule, active = well fitted inhibition curve with a large enough effect; inconclusive = small, poorly fitted or top-dose-only effect; inactive = flat fitted curve, though single readings scatter. Where the call is inconclusive, the potency comes from a doubtful curve fit.

Target: Microtubule-associated protein tau (Homo sapiens) (UniProt P10636)
Chain of UniProt P10636 (P10636 whole entry, looked up): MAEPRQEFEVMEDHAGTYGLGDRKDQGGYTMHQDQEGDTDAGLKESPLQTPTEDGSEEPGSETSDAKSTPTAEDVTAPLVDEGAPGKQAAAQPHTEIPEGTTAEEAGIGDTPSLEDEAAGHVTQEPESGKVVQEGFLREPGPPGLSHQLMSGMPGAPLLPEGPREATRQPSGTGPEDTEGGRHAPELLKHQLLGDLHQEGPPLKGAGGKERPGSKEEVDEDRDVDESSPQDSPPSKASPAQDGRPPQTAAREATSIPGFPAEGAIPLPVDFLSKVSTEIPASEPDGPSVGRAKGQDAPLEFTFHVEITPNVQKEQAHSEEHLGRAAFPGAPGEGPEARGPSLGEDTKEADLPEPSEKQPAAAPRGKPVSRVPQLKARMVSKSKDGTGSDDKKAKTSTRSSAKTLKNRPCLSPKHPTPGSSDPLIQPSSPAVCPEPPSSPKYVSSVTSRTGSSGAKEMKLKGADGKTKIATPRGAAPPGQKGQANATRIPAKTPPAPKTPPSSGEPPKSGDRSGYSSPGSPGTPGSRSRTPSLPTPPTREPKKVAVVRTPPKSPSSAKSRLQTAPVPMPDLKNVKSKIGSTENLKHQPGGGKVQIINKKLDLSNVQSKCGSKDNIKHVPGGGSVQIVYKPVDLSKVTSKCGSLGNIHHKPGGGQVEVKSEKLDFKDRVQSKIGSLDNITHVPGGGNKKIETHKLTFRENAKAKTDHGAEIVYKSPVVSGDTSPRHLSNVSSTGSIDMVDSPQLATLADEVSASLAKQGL
Experiment: qHTS for Inhibitors of Tau Fibril Formation, Thioflavin T Binding; note: nearly all actives have a fitted effect of over 55% in size
Conditions: recombinant tau K18 P301L, heparin-induced fibrillization, ThT fluorescence; series mostly up to 57.4 µM; activity, negative = inhibition: at the top concentration
Summary of the method: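 ThT emission at 510 nm, taken 1 hr after adding 30 uM dye, quantifies aggregates formed when 20 uM heparin acts on human tau K18 P301L for 6 hr at 37 C.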
% is set by controls: 0 for no effect and ±100 for the full control effect; potency is the fitted concentration of half-maximal effect; tags give direction and shape of the fitted curve.

SMILES | Potency | activity, negative = inhibition
O=C(Nc1ccc(NC(=O)c2ccccn2)cc1)C(=O)Nc1ccc2c(c1)OCCO2 | inconclusive: 0.251 µM [inhibitor, full curve, poor fit] | –
O=c1cc(-c2ccc3c(c2)OCCO3)oc2ccc(Cl)cc12 | inconclusive: 0.251 µM [inhibitor, full curve] | –
Cn1c(=O)c([N+](=O)[O-])c(Oc2ccccc2)c2ccccc21 | inconclusive: 15.8 µM [inhibitor, partial curve] | –
O=C(CCCN1C(=O)/C(=C/c2cccs2)SC1=S)Nc1cccc(C(=O)O)c1 | inconclusive: 7.94 µM [inhibitor, partial curve] | –
O=C1NC(=Nc2ccccc2)S/C1=C\c1cccnc1 | inconclusive: 31.6 µM [inhibitor, single point] | –
Cc1ccc(OCC(=O)n2nc(C)cc2C)c(C)c1 | inconclusive: 17.8 µM [inhibitor, partial curve] | –
Cc1cc(C)cc(N2Cc3ccccc3C2)c1 | inconclusive: 31.6 µM [inhibitor, partial curve] | –
O=C(CC12CC3CC(CC(C3)C1)C2)N/N=C/c1ccc([N+](=O)[O-])o1 | – | inactive: -7.31%
CCc1cccc2c(C(=O)CSc3nncn3-c3ccccc3OC)c[nH]c12 | – | inactive: 3.45%
CCOC(=O)c1cnn(-c2ccc(C(F)(F)F)cn2)c1N | inconclusive: 6.31 µM [inhibitor, partial curve] | –
Cc1cccc(-n2ncc3c(NCc4ccco4)ncnc32)c1 | – | inactive: -17.1%
O=C(CCOc1ccccc1)N1CCN(c2ccc(O)cc2)CC1 | inconclusive: 20 µM [inhibitor, partial curve, poor fit] | –
COc1ccc(NC(=O)c2ccc(-c3ccc([N+](=O)[O-])cc3)o2)cc1OC | active: 5.01 µM | –
CC(C)(C)C(=O)NCCc1nc2ccccc2n1CCCCOc1ccccc1 | inconclusive: 8.91 µM [inhibitor, partial curve] | –
Cc1ccc(NC2=C(Cl)C(=O)c3ccccc3C2=O)cc1 | active: 2.24 µM | –
Cc1ccc(/C=C2\SC(=S)N(CCC(=O)NNC(=O)c3cccnc3)C2=O)cc1 | inconclusive: 0.794 µM [inhibitor, full curve, poor fit] | –
Clc1ccc(-c2ccc(C=Nc3ccc(N4CCOCC4)cc3)o2)c(Cl)c1 | inconclusive: 12.6 µM [inhibitor, partial curve] | –
COc1ccc(NC(=O)CCC(=O)N/N=C/c2ccc([N+](=O)[O-])s2)cc1 | inconclusive: 8.91 µM [inhibitor, full curve] | –
CCN(CC)c1ccc(N=Cc2ccc(N(CC)CC)cc2O)cc1 | inconclusive: 1.12 µM [inhibitor, full curve] | –
CC(=O)c1cccc(NC(=O)CC2S/C(=N/N=C/c3cccs3)NC2=O)c1 (centres undefined) | – | inactive: 3.15%
Cc1nc(SCC(=O)N(C)Cc2ccco2)c2c(C)c(C)sc2n1 | inconclusive: 20 µM [inhibitor, partial curve] | –
O=C(NCc1nc2ccccc2[nH]1)C1=C[C@@H](c2ccc(Br)cc2)C[C@@H](OCc2ccc(CO)cc2)O1 | inconclusive: 22.4 µM [inhibitor, single point] | –
Cc1ccc2c(=O)c(C(=O)c3cccc(Cl)c3)cn(CC(=O)NC3CCCCC3)c2n1 | inconclusive: 28.2 µM [inhibitor, single point] | –

SMILES | Potency | activity, negative = inhibition
Cc1cc(F)ccc1NC(=O)CCS(=O)(=O)c1cc2c(cc1C)NC(=O)CO2 | – | inactive: -8.1%
Cc1cc2ncc(-c3ccccc3)nc2cc1C | – | inactive: -22.6%
Nc1ccccc1-c1nc2ccccc2s1 | inconclusive: 17.8 µM [inhibitor, single point] | –
Cc1onc(C(N)=O)c1C(=O)Nc1ncc(C(F)(F)F)cc1Cl | – | inactive: 5.68%
Cn1ncc(SCc2ccccc2)c(Cl)c1=O | inconclusive: 39.8 µM [inhibitor, single point] | –
Cc1ccc(C)c(Cn2nnc3c(=O)[nH]c(C4CCCN(C(=O)CC(C)C)C4)nc32)c1 (centres undefined) | inconclusive: 0.126 µM [inhibitor, full curve, poor fit] | –
COc1ccc2c(Cn3cnc4cc([N+](=O)[O-])ccc4c3=O)cc(=O)oc2c1 | inconclusive: 15.8 µM [inhibitor, partial curve, poor fit] | –
COc1cc(/C=N/NC(=O)c2ccc(COc3cc(C)ccc3C(C)C)cc2)cc(OC)c1O | inconclusive: 6.31 µM [inhibitor, full curve] | –
CC1CC1C(=O)OCC(=O)Nc1ccc2[nH]c(=O)[nH]c2c1 (centres undefined) | inconclusive: 44.7 µM [inhibitor, single point] | –
Cc1cc(/C=C2\SC(=S)N(Cc3ccco3)C2=O)c(C)n1-c1cccnc1 | inconclusive: 14.1 µM [inhibitor, partial curve] | –
C/C(CCN1CCCc2nc(C)c(C)cc21)=N\O[C@@H](C)CN1CCCc2nc(C)c(C)cc21 | inconclusive: 1.12 µM [inhibitor, partial curve] | –
COc1ccc(NC2=CC(c3ccc(F)cc3)N(c3ccc(OC)cc3)C2=O)cc1 (centres undefined) | inconclusive: 11.2 µM [inhibitor, partial curve] | –
COc1cc(C(=O)Nc2cccc(-c3nnc(-c4ccco4)o3)c2)ccc1OC(C)=O | inconclusive: 15.8 µM [inhibitor, partial curve] | –
COc1ccc(-n2nc([N+](=O)[O-])c(=NCc3ccco3)n2O)cc1 | active: 10 µM | –
C=CCN1C(=O)/C(=C\c2ccco2)C(C(=O)OC)=C1C | – | inactive: 0.642%
Cc1cccc(C)c1NC(=S)N(CCN(C)C)C(C)c1ccccn1 (centres undefined) | – | inactive: -3.45%
Cc1nnc2ccc(N3CCC4(CC3)OCCO4)nn12 | inconclusive: 28.2 µM [inhibitor, partial curve, poor fit] | –
CCOc1ccc(-n2ccnc2SCC(=O)N2CCCc3ccccc32)cc1 | inconclusive: 28.2 µM [inhibitor, partial curve] | –
CS(=O)(=O)c1nsc2nc(=O)c(/C=C3\C=Nc4ccccc43)c(N)n12 | inconclusive: 4.47 µM [inhibitor, full curve] | –
Clc1cnc(N/N=C/c2cccs2)c(Cl)c1 | inconclusive: 31.6 µM [inhibitor, single point] | –
Cc1ccc(CSc2cn(CC(=O)N3CCCCCC3)c3ccccc23)cc1 | inconclusive: 15.8 µM [inhibitor, partial curve] | –
COC(=O)c1ccc2nc(-c3cccc(N)c3)cn2c1 | inconclusive: 15.8 µM [inhibitor, partial curve] | –
CC(NC(=O)Nc1ccc(Cl)cc1)C(c1cccs1)N1CCOCC1 (centres undefined) | – | inactive: -16.9%

SMILES | Potency | activity, negative = inhibition
Cc1ccc(-c2nc(C)c(CCNC(=O)c3ccccc3Br)s2)cc1 | inconclusive: 14.1 µM [inhibitor, partial curve] | –
Cc1ccc2c(C(=O)CNc3nncs3)c(C)[nH]c2c1 | inconclusive: 17.8 µM [inhibitor, partial curve, poor fit] | –
Cc1ccc(NC(=O)CN(C)C2CCCCC2)cc1Br | – | inactive: -8.15%
[O-]/[N+](=C/c1ccc(F)cc1)c1ccccc1 | inconclusive: 39.8 µM [inhibitor, single point] | –
O=C(/C=C/c1cccc([N+](=O)[O-])c1)N1CCN(c2ccccc2F)CC1 | – | inactive: -3.74%
Cc1ccc(-c2csc(NC(=O)C3CC=CCC3C(=O)O)c2C(=O)OC(C)C)cc1 (centres undefined) | inconclusive: 10 µM [inhibitor, partial curve] | –
COc1cccc(OC)c1C(=O)Nc1cc(C)nn1-c1nc2ccccc2[nH]1 | – | inactive: -5.55%
COc1cc(/C=N/n2cc(-c3ccccc3)[nH]c2=S)cc(OC)c1O | active: 20 µM | –
CCOc1cc(/C=C(/C#N)c2nc3ccccc3[nH]2)ccc1Oc1ccc([N+](=O)[O-])cn1 | – | inactive: -12.1%
FC(F)(F)c1ccc(N2CCN(c3cc(-c4ccccc4)nc4ncnn34)CC2)nc1 | inconclusive: 31.6 µM [inhibitor, partial curve] | –
O=C(OCn1ncc(Br)c(Br)c1=O)c1c(F)cccc1F | active: 7.08 µM | –
CC1=NN(c2ccccc2)C(=O)/C1=C\C=C\c1ccccc1 | active: 28.2 µM | –
Cc1ccc2nc(NNC(=O)c3ccc4c(c3)OCCO4)sc2c1 | inconclusive: 12.6 µM [inhibitor, partial curve] | –
CC(=O)O[C@H]1C(=O)[C@@]2(C)[C@H]([C@H](OC(=O)c3ccccc3)[C@]3(O)C[C@H](OC(=O)[C@H](O)[C@@H](NC(=O)c4ccccc4)c4ccccc4)C(C)=C1C3(C)C)[C@]1(OC(C)=O)CO[C@@H]1C[C@@H]2O | inconclusive: 22.4 µM [inhibitor, single point] | –
COc1cccc(C(C(=O)NC2CCCCC2)N(C(=O)c2ccco2)c2ccc(-n3cnnn3)c(C)c2)c1 (centres undefined) | – | inactive: 1.57%
CC(=O)Nc1ccc(Nc2cc(C(C)C)nc3c(-c4ccccc4)c(C)nn23)cc1 | inconclusive: 35.5 µM [inhibitor, single point] | –
COc1ccc(C(C[N+](=O)[O-])c2c(-c3ccccc3)cc3ccccn23)cc1 (centres undefined) | – | inactive: -5.98%
O=C1C(=C2SCCCS2)CC/C1=C\c1ccc(F)cc1 | active: 1.12 µM | –
O=C(/C=C/c1ccc(Cl)cc1)NCc1cccs1 | – | inactive: 1.07%
Cc1cc(N)c(-n2cc3c(=O)n(C)c(=O)n(C)c3c2)cc1C | inconclusive: 20 µM [inhibitor, partial curve] | –
Cc1[nH]c(=O)c(C#N)cc1-c1ccc2nccn2c1 | – | inactive: 5.75%
Cc1sc2nc(C3CC3)nc(SCC(=O)N3CC(=O)Nc4ccccc43)c2c1C | inconclusive: 15.8 µM [inhibitor, single point] | –
COc1ccc(-c2nc(-c3ccccc3)oc2Nc2ccc3ccccc3c2)cc1 | inconclusive: 14.1 µM [inhibitor, partial curve] | –
